Many values rest on one well or one pass, so single values are uncertain.
What was measured:
CHO-K1 [1] = test: relative survival (nuclei to bead ratio vs DMSO control) (% of vehicle control); higher = more surviving cells
Method: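 Flow-cytometric in vitro micronucleus assay (Litron MicroFlow) in CHO-K1 cells in 96-well plates, 19 concentrations (4.5-200 µM, n=1 per concentration). Without S9, cells were exposed for 24 h and sampled at 48 h. With Aroclor 1254-induced rat liver S9, cells were exposed for 3-4 h and sampled at 27-28 h. Read-outs are %MN and %hypodiploid nuclei relative to nucleated events, and relative survival as the nuclei-to-bead ratio versus the 1% DMSO vehicle control (x100).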

CHO-K1 [2] = test: micronucleus frequency (% of nucleated events); higher = more micronuclei (genotoxic)
CHO-K1 [3] = test: hypodiploid nuclei frequency (% of nucleated events); higher = more hypodiploid events (aneugenic)
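Throughout, for hypodiploid nuclei frequency (% of nucleated events): hypodiploid nuclei gated on a flow cytometer with 488 nm excitation after SYTOX Green staining, cultures at 37 °C, positive controls vinblastine without S9 and cyclophosphamide with S9.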
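Throughout, for micronucleus frequency (% of nucleated events): cells lysed with nuclei stained by SYTOX Green, then micronucleus-gated events counted against nucleated events by flow cytometry with 488 nm excitation.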
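Throughout, for relative survival (nuclei to bead ratio vs DMSO control): Lysed-cell nuclei stained with SYTOX Green and counted against counting beads by flow cytometry at 488 nm excitation, with vinblastine (no S9) and cyclophosphamide (plus S9) as positive controls.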

COC(=O)c1ccccc1N [Methyl 2-aminobenzoate]
Details	hypodiploid nuclei frequency, CHO-K1 [3] [%]	micronucleus frequency, CHO-K1 [2] [%]	relative survival, CHO-K1 [1]
concentration: 4.5 (µM), S9 metabolic activation: with S9, exposure time: 3-4 hours	0.4	1.32	121
concentration: 4.5 (µM), S9 metabolic activation: without S9, exposure time: 24 hours	0.96	1.16	112
concentration: 5.63 (µM), S9 metabolic activation: with S9, exposure time: 3-4 hours	0.28	1.16	111
concentration: 5.63 (µM), S9 metabolic activation: without S9, exposure time: 24 hours	0.84	0.94	125
concentration: 7.04 (µM), S9 metabolic activation: with S9, exposure time: 3-4 hours	0.12	0.76	128
concentration: 7.04 (µM), S9 metabolic activation: without S9, exposure time: 24 hours	0.52	1.18	126
concentration: 8.8 (µM), S9 metabolic activation: with S9, exposure time: 3-4 hours	0.16	0.82	129
concentration: 8.8 (µM), S9 metabolic activation: without S9, exposure time: 24 hours	0.82	1.3	105
concentration: 11 (µM), S9 metabolic activation: with S9, exposure time: 3-4 hours	0.2	0.76	110
concentration: 11 (µM), S9 metabolic activation: without S9, exposure time: 24 hours	0.76	1.48	120
concentration: 13.7 (µM), S9 metabolic activation: with S9, exposure time: 3-4 hours	0.24	0.66	119
concentration: 13.7 (µM), S9 metabolic activation: without S9, exposure time: 24 hours	0.84	1.14	99.7
concentration: 17.2 (µM), S9 metabolic activation: with S9, exposure time: 3-4 hours	0.24	0.84	118
concentration: 17.2 (µM), S9 metabolic activation: without S9, exposure time: 24 hours	0.52	1.14	112
concentration: 21.5 (µM), S9 metabolic activation: with S9, exposure time: 3-4 hours	0.12	0.94	102
concentration: 21.5 (µM), S9 metabolic activation: without S9, exposure time: 24 hours	0.74	1.66	88.4
concentration: 26.8 (µM), S9 metabolic activation: with S9, exposure time: 3-4 hours	0.18	0.88	155
concentration: 26.8 (µM), S9 metabolic activation: without S9, exposure time: 24 hours	1.2	0.92	97.6
concentration: 33.6 (µM), S9 metabolic activation: with S9, exposure time: 3-4 hours	0.3	0.88	159
concentration: 33.6 (µM), S9 metabolic activation: without S9, exposure time: 24 hours	1.22	1.34	105
concentration: 41.9 (µM), S9 metabolic activation: with S9, exposure time: 3-4 hours	0.1	0.98	124
concentration: 41.9 (µM), S9 metabolic activation: without S9, exposure time: 24 hours	1.08	1.32	89.3
concentration: 52.4 (µM), S9 metabolic activation: with S9, exposure time: 3-4 hours	0.14	0.7	118
concentration: 52.4 (µM), S9 metabolic activation: without S9, exposure time: 24 hours	0.82	1.06	116
concentration: 65.5 (µM), S9 metabolic activation: with S9, exposure time: 3-4 hours	0.26	1.3	105
concentration: 65.5 (µM), S9 metabolic activation: without S9, exposure time: 24 hours	0.92	1.6	102
concentration: 81.9 (µM), S9 metabolic activation: with S9, exposure time: 3-4 hours	0.14	0.98	115
concentration: 81.9 (µM), S9 metabolic activation: without S9, exposure time: 24 hours	1.24	1.72	99
concentration: 102 (µM), S9 metabolic activation: with S9, exposure time: 3-4 hours	0.32	1.24	127
concentration: 102 (µM), S9 metabolic activation: without S9, exposure time: 24 hours	1.12	2.38	114
concentration: 128 (µM), S9 metabolic activation: with S9, exposure time: 3-4 hours	0.16	1.08	110
concentration: 128 (µM), S9 metabolic activation: without S9, exposure time: 24 hours	1.16	1.32	97.6
concentration: 160 (µM), S9 metabolic activation: with S9, exposure time: 3-4 hours	0.46	1.38	85.7
concentration: 160 (µM), S9 metabolic activation: without S9, exposure time: 24 hours	1.4	1.74	87.3
concentration: 200 (µM), S9 metabolic activation: with S9, exposure time: 3-4 hours	0.39	1.71	63.5
concentration: 200 (µM), S9 metabolic activation: without S9, exposure time: 24 hours	1.62	1.62	75.1

CN(C)c1ccc(C(=O)c2ccc(N(C)C)cc2)cc1 [Michler's ketone]
Details	hypodiploid nuclei frequency, CHO-K1 [3] [%]	micronucleus frequency, CHO-K1 [2] [%]	relative survival, CHO-K1 [1]
concentration: 4.5 (µM), S9 metabolic activation: with S9, exposure time: 3-4 hours	0.22	0.96	90.1
concentration: 4.5 (µM), S9 metabolic activation: without S9, exposure time: 24 hours	–	–	24.9
concentration: 5.63 (µM), S9 metabolic activation: with S9, exposure time: 3-4 hours	0.18	1.1	121
concentration: 5.63 (µM), S9 metabolic activation: without S9, exposure time: 24 hours	–	–	13.3
concentration: 7.04 (µM), S9 metabolic activation: with S9, exposure time: 3-4 hours	0.28	1.22	102
concentration: 8.8 (µM), S9 metabolic activation: with S9, exposure time: 3-4 hours	0.22	1.34	131
concentration: 11 (µM), S9 metabolic activation: with S9, exposure time: 3-4 hours	0.18	1.36	108
concentration: 11 (µM), S9 metabolic activation: without S9, exposure time: 24 hours	–	–	8.55
concentration: 13.7 (µM), S9 metabolic activation: with S9, exposure time: 3-4 hours	0.26	1.86	109
concentration: 13.7 (µM), S9 metabolic activation: without S9, exposure time: 24 hours	–	–	13.8
concentration: 17.2 (µM), S9 metabolic activation: with S9, exposure time: 3-4 hours	0.24	1.52	99.9
concentration: 17.2 (µM), S9 metabolic activation: without S9, exposure time: 24 hours	–	–	9.24
concentration: 21.5 (µM), S9 metabolic activation: with S9, exposure time: 3-4 hours	0.3	1.58	123
concentration: 21.5 (µM), S9 metabolic activation: without S9, exposure time: 24 hours	–	–	7.59
concentration: 26.8 (µM), S9 metabolic activation: with S9, exposure time: 3-4 hours	0.3	0.94	175
concentration: 26.8 (µM), S9 metabolic activation: without S9, exposure time: 24 hours	–	–	9.22
concentration: 33.6 (µM), S9 metabolic activation: with S9, exposure time: 3-4 hours	0.46	1.28	138
concentration: 33.6 (µM), S9 metabolic activation: without S9, exposure time: 24 hours	–	–	10.1
concentration: 41.9 (µM), S9 metabolic activation: with S9, exposure time: 3-4 hours	1.24	1.98	81.9
concentration: 41.9 (µM), S9 metabolic activation: without S9, exposure time: 24 hours	–	–	18.2
concentration: 52.4 (µM), S9 metabolic activation: with S9, exposure time: 3-4 hours	7.41	6.98	62.4
concentration: 52.4 (µM), S9 metabolic activation: without S9, exposure time: 24 hours	–	–	17.7
concentration: 65.5 (µM), S9 metabolic activation: with S9, exposure time: 3-4 hours	19.2	16.3	45.2
concentration: 65.5 (µM), S9 metabolic activation: without S9, exposure time: 24 hours	–	–	15.7
concentration: 81.9 (µM), S9 metabolic activation: with S9, exposure time: 3-4 hours	27.4	30.1	44.4
concentration: 81.9 (µM), S9 metabolic activation: without S9, exposure time: 24 hours	–	–	18.4
concentration: 102 (µM), S9 metabolic activation: with S9, exposure time: 3-4 hours	20.5	22.9	42.5
concentration: 102 (µM), S9 metabolic activation: without S9, exposure time: 24 hours	–	–	25.4
concentration: 128 (µM), S9 metabolic activation: with S9, exposure time: 3-4 hours	–	–	39.8
concentration: 128 (µM), S9 metabolic activation: without S9, exposure time: 24 hours	–	–	25.4
concentration: 160 (µM), S9 metabolic activation: with S9, exposure time: 3-4 hours	–	–	39.8
concentration: 160 (µM), S9 metabolic activation: without S9, exposure time: 24 hours	–	–	22.6
concentration: 200 (µM), S9 metabolic activation: with S9, exposure time: 3-4 hours	–	–	28.3
concentration: 200 (µM), S9 metabolic activation: without S9, exposure time: 24 hours	–	–	18.7

CN(C)c1ccccc1 [N,N-Dimethylaniline]
Details	hypodiploid nuclei frequency, CHO-K1 [3] [%]	micronucleus frequency, CHO-K1 [2] [%]	relative survival, CHO-K1 [1]
concentration: 4.46 (µM), S9 metabolic activation: with S9, exposure time: 3-4 hours	0.14	1.54	168
concentration: 4.46 (µM), S9 metabolic activation: without S9, exposure time: 24 hours	0.7	2.32	113
concentration: 5.57 (µM), S9 metabolic activation: with S9, exposure time: 3-4 hours	0.42	1.34	117
concentration: 5.57 (µM), S9 metabolic activation: without S9, exposure time: 24 hours	0.62	2.24	97
concentration: 6.97 (µM), S9 metabolic activation: with S9, exposure time: 3-4 hours	0.16	1.06	143
concentration: 6.97 (µM), S9 metabolic activation: without S9, exposure time: 24 hours	0.5	1.42	110
concentration: 8.71 (µM), S9 metabolic activation: with S9, exposure time: 3-4 hours	0.18	1.06	140
concentration: 8.71 (µM), S9 metabolic activation: without S9, exposure time: 24 hours	0.52	1.84	97.8
concentration: 10.9 (µM), S9 metabolic activation: with S9, exposure time: 3-4 hours	0.18	1.24	146
concentration: 10.9 (µM), S9 metabolic activation: without S9, exposure time: 24 hours	0.68	2.32	95
concentration: 13.6 (µM), S9 metabolic activation: with S9, exposure time: 3-4 hours	0.16	1.08	121
concentration: 13.6 (µM), S9 metabolic activation: without S9, exposure time: 24 hours	0.46	1.88	95
concentration: 17 (µM), S9 metabolic activation: with S9, exposure time: 3-4 hours	0.2	1.6	125
concentration: 17 (µM), S9 metabolic activation: without S9, exposure time: 24 hours	0.44	1.28	117
concentration: 21.3 (µM), S9 metabolic activation: with S9, exposure time: 3-4 hours	0.12	1.08	134
concentration: 21.3 (µM), S9 metabolic activation: without S9, exposure time: 24 hours	0.56	1.54	103
concentration: 26.6 (µM), S9 metabolic activation: with S9, exposure time: 3-4 hours	0.38	1.34	188
concentration: 26.6 (µM), S9 metabolic activation: without S9, exposure time: 24 hours	0.94	1.3	87.1
concentration: 33.2 (µM), S9 metabolic activation: with S9, exposure time: 3-4 hours	0.3	1.34	167
concentration: 33.2 (µM), S9 metabolic activation: without S9, exposure time: 24 hours	0.58	1.78	132
concentration: 41.5 (µM), S9 metabolic activation: with S9, exposure time: 3-4 hours	0.24	1.56	143
concentration: 41.5 (µM), S9 metabolic activation: without S9, exposure time: 24 hours	0.8	1.82	110
concentration: 51.9 (µM), S9 metabolic activation: with S9, exposure time: 3-4 hours	0.24	1.54	136
concentration: 51.9 (µM), S9 metabolic activation: without S9, exposure time: 24 hours	0.92	1.76	104
concentration: 64.9 (µM), S9 metabolic activation: with S9, exposure time: 3-4 hours	0.2	1.2	120
concentration: 64.9 (µM), S9 metabolic activation: without S9, exposure time: 24 hours	0.98	2.14	95.8
concentration: 81.1 (µM), S9 metabolic activation: with S9, exposure time: 3-4 hours	0.2	1.42	140
concentration: 81.1 (µM), S9 metabolic activation: without S9, exposure time: 24 hours	1.08	2.66	102
concentration: 101 (µM), S9 metabolic activation: with S9, exposure time: 3-4 hours	0.3	1.72	151
concentration: 101 (µM), S9 metabolic activation: without S9, exposure time: 24 hours	0.88	2.18	91.2
concentration: 127 (µM), S9 metabolic activation: with S9, exposure time: 3-4 hours	0.14	1.34	145
concentration: 127 (µM), S9 metabolic activation: without S9, exposure time: 24 hours	1	1.9	99.5
concentration: 158 (µM), S9 metabolic activation: with S9, exposure time: 3-4 hours	0.18	1.2	143
concentration: 158 (µM), S9 metabolic activation: without S9, exposure time: 24 hours	1.22	2.68	84
concentration: 198 (µM), S9 metabolic activation: with S9, exposure time: 3-4 hours	0.28	1.22	121
concentration: 198 (µM), S9 metabolic activation: without S9, exposure time: 24 hours	1.44	2.62	91.2

From the supplement of paper PMC9151546
